From PubChem BioAssay AID1671193 (National Center for Advancing Translational Sciences (NCATS), 2021)
Screen size: about 150,000 compounds; about 180 (0.12%) were called active. The inconclusive results got no clear call from the source; some entries with a clear call stand among them for comparison. Calls come from the whole dose curve; as a rule, active = well fitted cell-killing curve with a large enough effect; inconclusive = small, poorly fitted or top-dose-only effect, or effect the other way; inactive = flat fitted curve, though single readings scatter. Potencies of inconclusive entries are doubtful fits and often do not repeat.

experiment: GF-AFC viability counterscreen for inhibitors of alpha-synuclein gene (SNCA) expression; details: HEK-293-SNCA-luc viability, GF-AFC fluorescence, 24 h; activity change, negative = cytotoxicity: at 57.1 µM (top of the series) unless noted; note: nearly all actives have a fitted effect of over 30% in size;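 for activity change, negative = cytotoxicity: 0% = DMSO-treated cells and -100% = medium-only wells without cells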
In short: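 HEK-293-SNCA-luc cells (1500/well) plated 24 h, then exposed 24 h to a dilution series; GF-AFC added 30 min at 37C, fluorescence 405/540 nm; normalised to medium-only and DMSO wells, Hill fit.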
Potency is the fitted concentration of half-maximal effect; tags give direction and shape of the fitted curve.

Q: Which Potency does the source give for `COCCN1C(=O)CCc2cc(NC(=O)c3ccc(C)cc3C)ccc21` here?
A: inconclusive: 31.6 µM [rising, single point]

Q: With `O=C(NCc1ccc(F)cc1)c1cc(-c2cnccc2Cl)c2cccn2n1` as the molecule, how does the “activity change, negative = cytotoxicity” value read?
A: inactive: -19.1%

Q: Which Potency does the source give for `Cc1ccc(S(=O)(=O)c2cc3cc(C(=O)Nc4ccc(C)cc4C)ccc3oc2=O)cc1` here?
A: inconclusive: 1 µM [rising, partial curve, poor fit]

Q: With `COCCCn1c(=N)c(C(=O)NC2CCCCC2)cc2c(=O)n3cc(C)ccc3nc21` as the molecule, how does the Potency read?
A: inconclusive: 3.98 µM [rising, single point]

Q: With `CC1CCN(S(=O)(=O)c2ccc3nc(N4CCN(c5ccc(F)cc5)CC4)ccc3c2)CC1` as the molecule, how does the Potency read?
A: inconclusive: 0.355 µM [cytotoxic, full curve, poor fit]

Q: With `CCOc1cccc(CN2CCCC(COc3ccccc3C(=O)NC(C)C)C2)c1` (centres undefined) as the molecule, how does the Potency read?
A: inconclusive: 14.1 µM [cytotoxic, partial curve, poor fit]

Q: Which Potency does the source give for `Cc1ccc(C(=O)N2CCC(C)CC2)cc1NC(=O)c1nsc2ccccc12` here?
A: inconclusive: 31.6 µM [cytotoxic, single point]

Q: With `CN1CCc2c([nH]c3ccccc23)C12CCN(C(=O)C1CC1)CC2` as the molecule, how does the activity change, negative = cytotoxicity read?
A: inactive: 3.35% [at 12.5 µM]

Q: With `COc1ccccc1N1CCN(C(=O)C2CCCN(S(C)(=O)=O)CCC(=O)NCC2)CC1` (centres undefined) as the molecule, how does the Potency read?
A: inconclusive: 11.2 µM [rising, partial curve]

Q: With `O=[S+]([O-])(NC1CCN(c2ccnc3ccnn23)C1)c1ccccc1` (centres undefined) as the molecule, how does the “activity change, negative = cytotoxicity” value read?
A: inactive: -17.6%

Q: With `COc1ccc(OC)c(/C=C(\C#N)c2nc(-c3ccc(F)cc3)cs2)c1` as the molecule, how does the Potency read?
A: inconclusive: 7.08 µM [rising, partial curve]

Q: With `CN1C[C@@H](NC(=O)c2ccccn2)C[C@H]1c1nc(-c2ccc(Cl)cc2)no1` as the molecule, how does the Potency read?
A: inconclusive: 25.1 µM [cytotoxic, partial curve, poor fit]

Q: Which Potency does the source give for `O=C(Nc1ccc(Cl)cc1)c1cc(S(=O)(=O)NC2CCCCCC2)ccc1F` here?
A: inconclusive: 22.4 µM [cytotoxic, single point]

Q: Which Potency does the source give for `C[C@@H]1C(=O)O[C@H](C)[C@H]1C[C@@H](O)[C@](C)(O)[C@H]1CC[C@@]2(O)C3=CC(=O)[C@@H]4C[C@@H](O)[C@@H](O)C[C@]4(C)C3CC[C@]12C` (some centres undefined) here?
A: inconclusive: 5.82 µM [cytotoxic, partial curve, poor fit]

Q: With `Cc1cccc(NC(=O)N2CC(Oc3cccc(-c4nc(C)no4)c3)C2)c1` as the molecule, how does the “activity change, negative = cytotoxicity” value read?
A: inactive: -6.37%

Q: Which Potency does the source give for `CCn1ncc(N2CCC(NC(=O)c3ccc(OC)cc3)CC2)cc1=O` here?
A: inconclusive: 3.98 µM [cytotoxic, full curve, poor fit]

Q: Which Potency does the source give for `COc1cccc(CN(C(=O)c2oc3ccccc3c2C)C2CCS(=O)(=O)C2)c1` (centres undefined) here?
A: inconclusive: 11.2 µM [cytotoxic, partial curve, poor fit]

Q: For `O=C(NCCc1ccc(Cl)cc1)C(=O)NCC(c1cccs1)S(=O)(=O)c1ccccc1` (centres undefined), which Potency is on record?
A: inconclusive: 0.398 µM [rising, full curve, poor fit]

Q: For `COc1ccc(-c2noc(CSc3nc4ccccc4[nH]3)n2)cc1`, which Potency is on record?
A: inconclusive: 39.8 µM [cytotoxic, single point]

Q: Which Potency does the source give for `COC(=O)c1cc2sc(C)cc2n1Cc1nc(-c2ccc(C)cc2)oc1C` here?
A: inconclusive: 6.31 µM [rising, single point]

Q: Which Potency does the source give for `O=C(c1cc2ccc3cccnc3c2[nH]1)N1CCN(c2cccc(Cl)c2)CC1` here?
A: inconclusive: 7.08 µM [rising, single point]

Q: For `C[C@@H]1CC[C@]2(C(=O)O)CC[C@]3(C)C(=CCC4[C@@]5(C)C[C@@H](O)[C@H](O)[C@@](C)(CO)C5CC[C@]43C)C2[C@H]1C` (some centres undefined), which “activity change, negative = cytotoxicity” value is on record?
A: inactive: -9.7% [at 23.9 µM]

Q: Which “activity change, negative = cytotoxicity” value does the source give for `Cc1ccc(-c2cc3c(=O)n(CCNC(=O)c4ccc5cc[nH]c5c4)ccn3n2)cc1C` here?
A: inactive: -14.8%

Q: For `COc1cc(OC)cc(C(=O)NCCc2csc(-c3ccc(C(F)(F)F)cc3)n2)c1`, which Potency is on record?
A: inconclusive: 11.2 µM [rising, partial curve]

Q: Which Potency does the source give for `CC(C)(C)c1ccc(C(=O)Nc2ccc(C(O)[C@H]3COCC(=O)N3Cc3ccccc3)cc2)cc1` (some centres undefined) here?
A: inconclusive: 39.8 µM [cytotoxic, single point]

Q: Which “activity change, negative = cytotoxicity” value does the source give for `O=C(c1ccco1)N1CCC(O)(c2ccccc2)[C@H](N2CCCC2)C1` (some centres undefined) here?
A: inactive: -4.84%

Q: Which Potency does the source give for `O=C(Cc1ccccc1Cl)NC1CCN(c2cc(-c3ccccc3)[nH]n2)C1` (centres undefined) here?
A: inconclusive: 10 µM [cytotoxic, partial curve, poor fit]

Q: Which Potency does the source give for `CC(C)NCCCn1c(Sc2cc3c(cc2I)OCO3)nc2c(N)ncnc21` here?
A: inconclusive: 11.9 µM [cytotoxic, partial curve]

Q: Which Potency does the source give for `CCOC(=O)c1cccc(NC(=O)c2cnc(-c3ccc(C)cc3)nc2-c2ccncc2)c1` here?
A: inconclusive: 10 µM [cytotoxic, partial curve, poor fit]

Q: With `COCCCn1c(=O)c(C(=O)N2CCN(C(=O)Cc3ccccn3)CC2)nc2cccnc21` as the molecule, how does the “activity change, negative = cytotoxicity” value read?
A: inactive: 4.85%

Q: For `COc1ccc(-c2nc3cnc(N4CCOCC4)nc3n(-c3ccc(OC)cc3)c2=O)cc1`, which Potency is on record?
A: inconclusive: 25.1 µM [rising, partial curve]

Q: For `COC(=O)c1ccc2nc(C[C@@H]3C[C@@H](C(C)C)[C@H](CNC(=O)CCCC(=O)O)C=C3C)[nH]c2c1`, which “activity change, negative = cytotoxicity” value is on record?
A: inactive: 3.1%

Q: For `O=c1c(-c2ccc(F)cc2)nc2cnc(N3CCOCC3)nc2n1Cc1ccc(F)cc1`, which Potency is on record?
A: inconclusive: 15.8 µM [rising, partial curve, poor fit]

Q: Which Potency does the source give for `CN1CC(C(=O)NCc2ccc(F)cc2)NC1=O` (centres undefined) here?
A: inconclusive: 3.98 µM [cytotoxic, partial curve, poor fit]

Q: For `COc1ccc(-c2cn3c(n2)sc2cc(C(=O)N4CCCCC4)ccc23)cc1`, which Potency is on record?
A: inconclusive: 39.8 µM [cytotoxic, single point]

Q: Which “activity change, negative = cytotoxicity” value does the source give for `COc1cccc(-c2ccc(CN3CCCC(NC(=O)Cc4ccccn4)C3)cc2)c1` (centres undefined) here?
A: inactive: -16.5%

Q: Which activity change, negative = cytotoxicity does the source give for `CCCCC[C@H](CC(=O)NO)C(=O)N[C@H](C(=O)N1CCC[C@H]1CO)C(C)C` here?
A: inconclusive: -42.9%

Q: With `CC(=O)N1CCN(c2cc(-c3noc([C@@H]4CCCN4Cc4ccc(C(F)(F)F)cc4)n3)ccn2)CC1` as the molecule, how does the “activity change, negative = cytotoxicity” value read?
A: inactive: -19.8%

Q: For `COc1ccc(C(=O)N2CCC(C(=O)N3CCC(N4CCCC4=O)CC3)CC2)cc1`, which Potency is on record?
A: inconclusive: 17.8 µM [rising, single point]
